Assay results reported in the supplement of paper PMC4604168 (melanoma cell lines).
This is one part of the list. Repeats are few or missing, and single values can be far off.

What was measured:
Assay in all cases: cell count relative to DMSO control; melanoma cells; higher = more viable cells
Details in all cases: library dose: low library concentration; 72 h
[1] = test system: MZ2-MEL
[2] = test system: MeWo
[3] = test system: RPMI7951
[4] = test system: RVH-421
[5] = test system: SkMel28
[6] = test system: SkMel2
[7] = test system: SkMel30
[8] = test system: SkMel5
[9] = test system: UACC257
[10] = test system: UACC62
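Further: cell number obtained by counting DAPI-stained nuclei in high-throughput microscope images with image analysis software, screen run in 1,536-well plates.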

SMILES | cell count [1] [%] | cell count [2] [%] | cell count [3] [%] | cell count [4] [%] | cell count [5] [%] | cell count [6] [%] | cell count [7] [%] | cell count [8] [%] | cell count [9] [%] | cell count [10] [%]
COc1ccc(C2=N[C@@H](c3ccc(Cl)cc3)[C@@H](c3ccc(Cl)cc3)N2C(=O)N2CCNC(=O)C2)c(OC(C)C)c1 [Nutlin-3] + C=CCn1c(=O)c2cnc(Nc3ccc(N4CCN(C)CC4)cc3)nc2n1-c1cccc(C(C)(C)O)n1 [MK1775] (first compound 0.1 µM, partner dose 0.02 µM) | 100 | 101 | 100 | 90.1 | 70.4 | 88.7 | 89.7 | 80.5 | 71.5 | 65
Cn1c(=O)n(-c2ccc(C(C)(C)C#N)cc2)c2c3cc(-c4cnc5ccccc5c4)ccc3ncc21 + CCc1ccc(CCOc2ccc(CC3SC(=O)NC3=O)cc2)nc1 [pioglitazone] (first compound 0.004 µM, partner dose 2 µM) | 93.2 | 91.8 | 110 | 90.2 | 67.1 | 91.1 | 83.8 | 118 | 99 | 93.4
CC(C)C[C@H](NC(=O)[C@H](Cc1ccccc1)NC(=O)c1cnccn1)B(O)O [Bortezomib] + COc1cc2c(Oc3ccc4[nH]c(C)cc4c3F)ncnc2cc1OCCCN1CCCC1 [cediranib] (first compound 0.001 µM, partner dose 0.4 µM) | 81.5 | 93.7 | 98.8 | 61.9 | 96.9 | 84.3 | 69.1 | 106 | 74 | 76
Cn1c(=O)n(-c2ccc(C(C)(C)C#N)cc2)c2c3cc(-c4cnc5ccccc5c4)ccc3ncc21 + CC(C)CCN1c2nc(Nc3cc(F)c(O)c(F)c3)ncc2N(C)C(=O)C1C [BID1870] (first compound 0.004 µM, partner dose 0.2 µM) | 106 | 98.8 | 111 | 106 | 87.6 | 94.1 | 64.2 | 108 | 89.7 | 70.5
Cn1c(=O)n(-c2ccc(C(C)(C)C#N)cc2)c2c3cc(-c4cnc5ccccc5c4)ccc3ncc21 + Cc1cc([N+](=O)[O-])ccc1NS(=O)(=O)c1cc(Cl)ccc1Cl [FH535] (first compound 0.004 µM, partner dose 1 µM) | 88.1 | 78.1 | 96.3 | 80.3 | 60 | 81.9 | 81.7 | 83.6 | 88.5 | 81.9
COc1ccc(C2=N[C@@H](c3ccc(Cl)cc3)[C@@H](c3ccc(Cl)cc3)N2C(=O)N2CCNC(=O)C2)c(OC(C)C)c1 [Nutlin-3] + Cc1ccc(NC(=O)c2cccc(N(C)C)c2)cc1NC(=O)c1ccc(O)cc1 [ZM336372] (first compound 0.1 µM, partner dose 2 µM) | 82.3 | 102 | 92.9 | 91.3 | 94.9 | 95.9 | 107 | 95.9 | 80.8 | 81.7
CC(C)C[C@H](NC(=O)[C@H](Cc1ccccc1)NC(=O)c1cnccn1)B(O)O [Bortezomib] + CCc1ccc(CCOc2ccc(CC3SC(=O)NC3=O)cc2)nc1 [pioglitazone] (first compound 0.001 µM, partner dose 2 µM) | 75.1 | 66.6 | 53 | 59.3 | 76.6 | 83.5 | 79.4 | 102 | 86.4 | 77.3
Cc1cn(-c2cc(NC(=O)c3ccc(C)c(Nc4nccc(-c5cccnc5)n4)c3)cc(C(F)(F)F)c2)cn1 [nilotinib] + CC(C)CCN1c2nc(Nc3cc(F)c(O)c(F)c3)ncc2N(C)C(=O)C1C [BID1870] (first compound 0.2 µM, partner dose 0.2 µM) | 97 | 89.6 | 102 | 87.4 | 80.1 | 89.4 | 78.8 | 96.6 | 85.4 | 85.2
Cc1cn(-c2cc(NC(=O)c3ccc(C)c(Nc4nccc(-c5cccnc5)n4)c3)cc(C(F)(F)F)c2)cn1 [nilotinib] + Cc1cc([N+](=O)[O-])ccc1NS(=O)(=O)c1cc(Cl)ccc1Cl [FH535] (first compound 0.2 µM, partner dose 1 µM) | 95.7 | 97.8 | 99.6 | 143 | 80.9 | 91.4 | 82.8 | 79.2 | 88.2 | 88.2
CC(C)C[C@H](NC(=O)[C@H](Cc1ccccc1)NC(=O)c1cnccn1)B(O)O [Bortezomib] + OCCn1cc(-c2cnc3nnn(Cc4ccc5ncccc5c4)c3n2)cn1 [PF04217903] (first compound 0.001 µM, partner dose 1 µM) | 96.9 | 90 | 99.5 | 76.9 | 96.2 | 88.3 | 94.2 | 90.4 | 86.5 | 78
